From the RNAGym collection of RNA variant scans (doi:10.7554/elife.90254)
The source gives no read counts; variants with many changes may rest on few reads.

B1: LINE1-mini (parent)
chain: GGCAGAGCUCAACACAGCGUGGCAAAGUGGCUGUGGCUAGACUGCC

Variants of: B1
Experiment: self-cleavage, relative activity (ratio to wild type); higher = more cleavage; in vitro, sequencing; the parent is a self-cleaving ribozyme

Row | Variant | self-cleavage
1 | C10U A41C C45A | 0.04
2 | C10U A14G C18G C23G U38C | 0.01
3 | C10G G35A G40U U43G | 0
4 | C10G G17C C23U C31G U34C | 0.01
5 | C10G G19U G21U | 0.03
6 | C10G C23A A39G C46U | 0.03
7 | C10G G17U C18G G19A | 0.04
8 | C10U A12C C31U G33A G36U | 0.01
9 | C10G G17U G22U A25G G40C | 0.01
10 | C10G C15A G19U G30C C42U | 0
11 | C10U A26U G36A | 0.04
12 | C10G C15U G19C G30C | 0.01
13 | C10G G29U G44C C45A | 0.01
14 | C10U A12G A16U G21U C45A | 0.03
15 | C10U G19A A26C | 0.05
16 | C10U C13U G19A G33C U38C G40A U43G | 0.01
17 | C10U A25G C37A | 0.01
18 | C10U A16G C18A C42A | 0.02
19 | C10G G21C A25U G27C | 0.02
20 | C10U A16G G27A G36C | 0.05
21 | C10U A12G G36U U43G | 0.01
22 | C10U A16U C31U | 0
23 | C10G C15A G35U U43C C46A | 0.01
24 | C10U A12G G44A | 0.01

Row | Variant | self-cleavage
25 | C10U A12G G44U | 0
26 | C10U A14U A26C U32C G33U G35A | 0.04
27 | C10U A16U G29U | 0.52
28 | C10U A16G G33A | 0.05
29 | C10U A24U U34A | 0.02
30 | C10U G17C G35C G44C | 0.02
31 | C10U A12C C13A G40C | 0.04
32 | C10U G17A G36A C42G | 0.03
33 | C10G G29A G30C G33A C45U | 0.03
34 | C10U C15G G33U A39G | 0.02
35 | C10G U28C U34G | 0.03
36 | C10U A24G U28G | 0.15
37 | C10G C23U A24G G44U | 0.03
38 | C10G C15A U20C G33U U43A | 0.02
39 | C10G G17U C45A | 0.01
40 | C10G U28G A39G | 0
41 | C10U A14G A25C G27U | 0.25
42 | C10U C13G G17C G27U U38C | 0.01
43 | C10U A14C G33A G40C | 0.02
44 | C10U C15A G30U | 0.02
45 | C10U A25U C31U | 0.48
46 | C10G U28G C45U | 0.13
47 | C10U A14G G17U C31U C45A | 0.03
48 | C10U A25G G40C | 0.02

Row | Variant | self-cleavage
49 | C10U A14C U32C G40A | 0.02
50 | C10U G17A A26C U38C | 0.04
51 | C10G G22C G33C G36A A41G | 0.02
52 | C10U A11U G33A | 0.06
53 | C10G G17A A25G U32A | 0.02
54 | C10G G21U U32G C45G C46A | 0
55 | C10G C15U C37A | 0.03
56 | C10G C15A G22C A24G | 0.02
57 | C10G G19A U20G | 0.06
58 | C10U C15G G22C | 0.02
59 | C10G G21C C23A A41U C46A | 0.02
60 | C10U C18A U38G | 0.04
61 | C10G G36C A39U | 0.03
62 | C10G C15U A26G C46G | 0.02
63 | C10G C18U A25G | 0.08
64 | C10G G21U C23U | 0.28
65 | C10G G30C G35A | 0
66 | C10U A24C U34G | 0.06
67 | C10G G29U A41C | 0.01
68 | C10U C13G A39C | 0.08
69 | C10G G21C A39U | 0.08
70 | C10G G17U G33A C46U | 0.03
71 | C10G G29A G33A C42A C45U C46A | 0.01
72 | C10G G17C G40U | 0

Row | Variant | self-cleavage
73 | C10U G17U U34A | 0.06
74 | C10U C23U G30U | 0.29
75 | C10G G17A G33A | 0.03
76 | C10U C23G C37G | 0.02
77 | C10U G17C C42G C46U | 0
78 | C10G G21U C23G A26U | 0.1
79 | C10G G21U G29U A41C | 0.02
80 | C10G G19A G27U A39G | 0.01
81 | C10G U28G G33A G35C | 0.02
82 | C10G G27A G33U U38G | 0.01
83 | C10U C18U G30A | 1.09
84 | C10U A12C C18A C31A | 0.06
85 | C10U G17A C31G | 0.1
86 | C10G C18G G19A A39U G40C | 0.02
87 | C10G G30U G36U | 0.01
88 | C10U A14G G17A C23G | 0.03
89 | C10U C18A G27A G35A C37U | 0.01
90 | C10G G17A G19C G33U | 0.01
91 | C10U G17C C45G | 0.15
92 | C10U A12U G33A | 0.02
93 | C10G C23U G33C | 0.01
94 | C10U C13G U20C A25U G30U G35C U38A | 0.02
95 | C10G C15U G17C G21C G36U C37G C46U | 0
96 | C10U C15G G35C U38G G44A | 0

Row | Variant | self-cleavage
97 | C10G G21U A25G G33A C42U | 0.01
98 | C10U A26U U32A | 0.04
99 | C10U C13A C37G | 0.05
100 | C10U G17U U20G G21U G33C | 0.02
101 | C10G C42G U43A | 0.02
102 | C10G C18A C23G | 0.06
103 | C10G C15U G40C C46U | 0.05
104 | C10U A12G G17U | 0.04
105 | C10U A12G G40A | 0.01
106 | C10U A24C C31U U32A G33U | 0.04
107 | C10G G19C C31G G35A C42U | 0
108 | C10G U20A G40A | 0.01
109 | C10G G21C G33A | 0.04
110 | C10U A11C C18G G19A G27A | 0.04
111 | C10U C13G U20A | 0.12
112 | C10U A12U G40U | 0.03
113 | C10G U20G G30A | 0.08
114 | C10U C42G C45A | 0.03
115 | C10G C15A G17U | 0.01
116 | C10U A25C G30C C46A | 0.06
117 | C10G U20C A25U | 0.06
118 | C10U A12U A41C C46A | 0.01
119 | C10U A25C G33U A39C A41C | 0.03
120 | C10U A12U C13U C42U C46A | 0.02

Row | Variant | self-cleavage
121 | C10G U20G C46U | 0.04
122 | C10G U28A C31U | 0.01
123 | C10U A11C G19A G33U G44U | 0.01
124 | C10U A12G C15U G36U | 0.02
125 | C10U G17U G29A | 0.02
126 | C10U C13A A24G | 0.01
127 | C10U A11U G19U U28A | 0.08
128 | C10U A11U G30A C31U C46A | 0.01
129 | C10U A11C A16U C31U | 0.01
130 | C10U A12G C42G | 0.02
131 | C10G U20C U38C G40A | 0.01
132 | C10G G27U G44A | 0.03
133 | C10G C18G G33C U34A | 0.01
134 | C10U A11G C31A | 0.01
135 | C10G G27A A39C | 0.02
136 | C10G G35C C42U | 0.01
137 | C10U C15G G21A G27A U28G G36A U38C C42A | 0
138 | C10U C13U A16U A26U G30C U32A | 0.05
139 | C10G U20A C31A A41C C42U | 0
140 | C10U C15U G36U | 0.05
141 | C10U A12G U38C | 0.05
142 | C10G G19C G35A C42G | 0.01
143 | C10G U32G G35C | 0.02
144 | C10G C23G U28A U32A U38A | 0.01

Row | Variant | self-cleavage
145 | C10U A11G C13A A14C A16G | 0.04
146 | C10U G17A U20G G30A G36C G40U U43C | 0.02
147 | C10U C15A A16C G21C | 0.05
148 | C10G G22C U34C | 0.03
149 | C10U C18U U20G G40A | 0.03
150 | C10U C18A A25C C31A C37U | 0.02
151 | C10U A12G G21A G22U C37G | 0.02
152 | C10U C13A G44U | 0.04
153 | C10G C23U U43G | 0.03
154 | C10G C18A G40U | 0.04
155 | C10U A12U U38G A39U | 0.05
156 | C10U G17A G33U U34G G36U | 0.03
157 | C10U C13U C23U G40U | 0.01
158 | C10U A26U G29U | 0.06
159 | C10G U28A G29U U32G C42A | 0.01
160 | C10U C31U G33C | 0.05
161 | C10G G29C C31G | 0.02
162 | C10U C15A G27A C37U | 0
163 | C10G G22C C23U G40A | 0.01
164 | C10U C15A G29U C45A | 0.07
165 | C10U C15U U20A G21U G33A C45G | 0.04
166 | C10U A26C U28G U34G | 0.08
167 | C10G C15U G44C | 0.04
